According to article PMC4336329 (PLoS ONE, 2015):
In all, about 310,000 compounds went through this assay and about 14,000 (4.5%) showed an effect of 50% or more. Effects have a minus sign here. The list shows a part of the results.

Molecular target: human ether-à-go-go-related gene (hERG) potassium channel (human, UniProt Q12809)
Assay: primary screen, population patch clamp on CHO cells stably expressing hERG
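Note: peak tail current of the secondary pulse compared with the same well before compound.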

human ether-à-go-go-related gene (hERG) potassium channel, sequence (Q12809 whole entry, looked up): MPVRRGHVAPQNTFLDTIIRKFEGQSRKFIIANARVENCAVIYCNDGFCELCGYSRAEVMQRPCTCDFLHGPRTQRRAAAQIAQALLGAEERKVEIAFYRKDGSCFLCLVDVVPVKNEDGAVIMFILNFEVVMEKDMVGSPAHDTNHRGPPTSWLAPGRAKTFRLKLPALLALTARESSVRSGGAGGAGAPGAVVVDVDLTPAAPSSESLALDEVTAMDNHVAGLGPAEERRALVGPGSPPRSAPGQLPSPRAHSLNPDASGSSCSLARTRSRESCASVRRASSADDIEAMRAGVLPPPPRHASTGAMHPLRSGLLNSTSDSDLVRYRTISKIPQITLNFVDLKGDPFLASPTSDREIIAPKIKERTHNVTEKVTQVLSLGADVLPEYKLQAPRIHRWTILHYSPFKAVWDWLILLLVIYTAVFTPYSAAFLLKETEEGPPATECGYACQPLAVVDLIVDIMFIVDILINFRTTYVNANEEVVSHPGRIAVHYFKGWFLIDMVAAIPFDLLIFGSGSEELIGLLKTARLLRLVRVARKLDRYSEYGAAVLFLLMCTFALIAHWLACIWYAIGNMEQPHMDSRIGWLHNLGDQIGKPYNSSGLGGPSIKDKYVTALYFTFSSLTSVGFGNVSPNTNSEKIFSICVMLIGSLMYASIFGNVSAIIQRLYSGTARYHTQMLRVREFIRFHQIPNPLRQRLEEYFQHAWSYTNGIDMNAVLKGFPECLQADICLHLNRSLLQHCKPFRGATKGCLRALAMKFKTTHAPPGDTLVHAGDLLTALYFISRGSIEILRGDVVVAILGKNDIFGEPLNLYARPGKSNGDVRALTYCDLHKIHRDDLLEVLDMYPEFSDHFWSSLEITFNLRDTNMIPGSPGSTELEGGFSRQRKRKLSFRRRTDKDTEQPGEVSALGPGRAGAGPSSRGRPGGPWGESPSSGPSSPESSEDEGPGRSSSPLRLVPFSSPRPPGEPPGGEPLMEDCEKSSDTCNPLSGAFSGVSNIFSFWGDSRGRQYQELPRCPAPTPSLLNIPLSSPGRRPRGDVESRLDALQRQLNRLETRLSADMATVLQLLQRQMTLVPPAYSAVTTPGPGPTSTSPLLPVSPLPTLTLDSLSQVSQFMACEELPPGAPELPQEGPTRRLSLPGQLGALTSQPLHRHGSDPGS

Row | Structure (SMILES) | hERG current change (%, negative = inhibition) at 10uM [%]
1 | Cc1cccc2c(=O)c(-c3ccc4c(c3)OCO4)c(NC(=O)c3ccco3)oc12 | 1.12
2 | O=C1CC(c2ccccc2)CC(=O)N1c1ccccc1 | -16.4
3 | CC1CN(c2ccnc3cc(Cl)ccc23)CC(C)O1 (stereo not shown) | -39.7
4 | CCCc1cc(=O)oc2cc(C)cc(OCC(=O)NC(Cc3c[nH]c4ccc(O)cc34)C(=O)O)c12 (stereo not shown) | 13.9
5 | CC(C)(CO)CNC(=O)CCc1nnc(C2(c3ccc(Cl)cc3)CCC2)o1 | 6.43
6 | O=C(Nc1nccs1)c1ccc2c(c1)C(=O)N(Cc1cccnc1)C2=O | -4.17
7 | Cn1c(=O)n(C)c2cc(NS(=O)(=O)c3ccccc3[N+](=O)[O-])ccc21 | 8.19
8 | COC(=O)C1=C(c2c(C)noc2C)C[C@@H]2CC[C@H]1N2C(=O)NCCNC(C)=O | 22.2
9 | CCCn1c(C2CCCN2c2nc(-c3ccc(C)cc3)cs2)nc2cc(Cl)c(N3CCCCC3)cc21 (stereo not shown) | 18.8
10 | Cc1nn(CCCC(=O)O)c(C)c1[N+](=O)[O-] | 12.3
11 | Cn1c(Cc2ccccc2)nnc1SCC(=O)N1CCCCC1 | 9.84
12 | O=C(NCC1CCCO1)c1ccc2c(c1)N(Cc1ccccc1)CCS2 (stereo not shown) | -14.6
13 | Cc1nc(CCNC(=O)CC2C(=O)NCCN2Cc2ccccc2)nc2c1CCC2 (stereo not shown) | 6.51
14 | NC(=O)CSc1nc2c(sc3ccccc32)c(=O)n1CCCN1CCOCC1 | -52.8
15 | Cc1ccccc1NC(=O)NC1(C(=O)N2CCN(C)CC2)CCCCC1 | 18.4
16 | Cc1cccc(N2CCN(C(=O)C(Cc3ccccc3)n3cccc3)CC2)c1C (stereo not shown) | -0.223
17 | O=C(CCCCCCN1C(=O)c2ccccc2C1=O)NC1CCCCC1 | 19.2
18 | O=C1Nc2ccccc2C1(O)Cc1ccccn1 (stereo not shown) | 12.2
19 | O=C(Nc1cccc(F)c1)N1CCCCCC1 | 10.7
20 | Br.c1ccc(C2CNCc3c2ccc2ccccc32)cc1 (stereo not shown) | -31.6
21 | Cc1ccccc1NC(=O)c1cccc(NC(=O)c2ccccc2C(=O)O)c1 | 12.7
22 | COC(=O)CSC1=C(C#N)C(c2ccc(Cl)cc2)C(C(=O)OC)C(=O)N1 (stereo not shown) | 0.571

Row | Structure (SMILES) | hERG current change (%, negative = inhibition) at 10uM [%]
23 | O=C(Nc1ccc(Oc2ccccc2)nc1)C1CCCCN1Cc1ccco1 (stereo not shown) | -18.8
24 | CCN(CC)C(=O)Cn1nc(-c2ccncc2)nc1SCC(=O)Nc1ccc(OC)cc1 | 12.1
25 | CC(NC(=O)c1ccc2c(c1)OCCO2)C(=O)O (stereo not shown) | -13.3
26 | Cl.Clc1cccc(Nc2nc(N3CCOCC3)nc(N3CCOCC3)n2)c1 | 16.9
27 | N#C/C(=C\c1cn(Cc2ccc(C#N)cc2)c2ccccc12)C(=O)NCc1cccs1 | 16.2
28 | COc1ccc(-c2cn(Cc3ccc(C(=O)NCc4ccc(C)cc4)cc3)c(C(C)N)n2)cc1 (stereo not shown) | -2.48
29 | COc1cccc(C(=O)c2cc3ccc(O)cc3oc2=O)c1 | -17.9
30 | COc1cccc(/C=C/c2[nH]c(=O)[nH]c(=O)c2[N+](=O)[O-])c1O | 17.8
31 | Cc1cc2ccccc2nc1SCC(=O)N1CCCC1 | 0.96
32 | COc1ccc(/C=N/N2CCN(c3ccccc3OC)CC2)cc1OC | -19.7
33 | Cc1cc(C)c(NC(=O)C2CC(=O)N(C(C)C)C2)c(C)c1 (stereo not shown) | 8.97
34 | CCCCN(C(=O)c1cnc2n(c1=O)CCS2)c1ccccc1 | 1.25
35 | CCN(CC)CCn1c2c(c(SCC(=O)Nc3ccccc3Cl)nc1=O)CCCC2 | -55.6
36 | COC(=O)C(NC(=O)CCC(=O)N[C@@H](C(=O)OC)c1ccccc1)c1ccccc1 (stereo partly shown) | 9.88
37 | Cc1ccc2c(CC(=O)N3CCN(S(=O)(=O)c4cccs4)CC3)coc2c1 | -24.8
38 | O=C(Nc1ccc(F)cc1)N1CCOCC1 | 9.84
39 | CC(Cl)C(=O)NNC(=O)CNS(=O)(=O)c1ccccc1 (stereo not shown) | -0.478
40 | O=C1[C@H]2[C@H](C=CC[C@H]2C(=O)N2CCN(c3ccccc3)CC2)CCN1Cc1ccccc1 | -2.04
41 | CCN(C(=O)COC(=O)c1ccc(OC)c(S(=O)(=O)N(C)Cc2ccccc2)c1)C1CCS(=O)(=O)C1 (stereo not shown) | -30.9
42 | CCOc1ccccc1NC(=O)CCNS(=O)(=O)c1ccc(NC(C)=O)cc1 | 1.61
43 | Cc1nnc(SCC(=O)Nc2nccs2)n1C(C)C | 5.56
44 | Cc1ccsc1/C=N/NC(=O)Cc1ccc([N+](=O)[O-])cc1 | 4.99

Row | Structure (SMILES) | hERG current change (%, negative = inhibition) at 10uM [%]
45 | COCCN=c1scc(-c2cc(OC)ccc2OC)n1/N=C/c1c[nH]c2ccccc12 | 1.31
46 | CCOP(=O)(OCC)c1nc(-c2cccc3ccccc23)oc1NCCc1ccc(OC)cc1 | 6.73
47 | COC(=O)CN1C(=O)[C@@H]2[C@H](C1=O)[C@@H]1CC(C(=O)OC)=C[C@@H](C(=O)OC)[C@@H]3C1=C(C(=O)[C@]3(C)NC(=O)c1ccccc1)[C@@H]2C | 13.1
48 | CN(C)S(=O)(=O)c1ccc(Cl)c(NC(=O)COC(=O)/C=C/c2ccc3ccccc3n2)c1 | 1.53
49 | CCN1C(=O)/C(=C2/Sc3ccc(OC)cc3N2C)SC1=Nc1ccc(OC)cc1 | 14.3
50 | COCCn1c(N2CCN(c3ccc(OC)cc3)CC2)nc2c1c(=O)[nH]c(=O)n2C | -25.6
51 | C/C(=N\Nc1ccc([N+](=O)[O-])cc1)c1ccc(O)cc1 | -1.55
52 | CSc1nsc(SC)c1C(=O)NC(=O)Nc1cccnc1 | 6.89
53 | O=C(Nc1ccc(C(=O)N2CCCCC2)cc1)C1=CSCCO1 | 14.3
54 | O=C(C1=C[C@@H](C2CCCCC2)C[C@@H](OCc2ccc(CO)cc2)O1)N1CCOCC1 | -23.9
55 | CCN(CC)S(=O)(=O)c1ccc(Cl)c(C(=O)NCc2ccco2)c1 | -15.9
56 | CC(=O)c1cccc(CN2CCN(Cc3ccc(F)cc3)C(CCO)C2)c1 (stereo not shown) | -32.9
57 | CCCNC(=O)c1onc(CSc2nc3ccccc3[nH]2)c1C(=O)NCCC | -35.7
58 | Cc1cccc(N2C(=O)CC(N3CCN(c4cccc(C(F)(F)F)c4)CC3)C2=O)c1 (stereo not shown) | 6.15
59 | Cc1nnc(SCCn2c(N3CCCCC3)nc3c2c(=O)n(C)c(=O)n3C)s1 | 10.3
60 | CC(C)Cc1cc(C(=O)Nc2sc3c(c2C#N)CCCC3)no1 | -14.8
61 | O=C(CN1CCCCC1)N/N=C/c1cc2ccccc2nc1Cl | -27.9
62 | O=C1CC(Sc2nnc(-c3ccccc3O)o2)C(=O)N1c1ccccc1 (stereo not shown) | 10.6
63 | COc1ccc(S(=O)(=O)NC2CC(=O)N(c3cccc(F)c3)C2)cc1OC (stereo not shown) | 6.15
64 | COc1cc(NC(=S)NCCO)c(OC)cc1Cl | 2.71
65 | CCCn1c(N)c(C(=O)CSc2nc3ccccc3c(=O)n2Cc2ccccc2)c(=O)[nH]c1=O | 7.22
66 | COc1cc(OC)c(NC(=O)C2CCCN2C(=O)OCc2ccccc2)cc1Cl (stereo not shown) | -0.267

Row | Structure (SMILES) | hERG current change (%, negative = inhibition) at 10uM [%]
67 | Nc1cccc(Oc2cnccn2)c1 | 13.6
68 | COc1ccc([C@H]2CC(=O)C=C(c3ccc(F)cc3OCc3ccccc3)C2)cc1 | -1.77
69 | COc1cccc([C@@H]2CC=C(C(=O)O)[C@H](c3ccccc3)N2S(=O)(=O)c2ccc(C)cc2)c1 | 5.93
70 | Cc1ccc(-n2cc(-c3ccccc3)c3c(NN4CCOCC4)ncnc32)cc1 | -23.5
71 | CCOC(=O)c1cccc(NC(=O)c2ccc3c(c2)C(=O)N(CC2CCCO2)C3=O)c1 (stereo not shown) | -30.3
72 | COc1cccc(NC(=O)COC(=O)c2nc(Cl)ccc2Cl)c1 | 22.5
73 | CCN1CCc2c(sc(NC(=S)NC(=O)c3ccc(Cl)cc3)c2C(N)=O)C1 | -24.4
74 | COc1ccc(-c2ccc(OC)cc2C(=O)O)cc1 | -12.5
75 | O=c1[nH]c(-c2cccnc2)nc2sc(-c3ccccc3)cc12 | 7.5
76 | CCN(CC)C(=O)C(=O)Nc1ccc(F)c(Cl)c1 | 19.8
77 | O=C(c1ccc(CS(=O)(=O)c2ccc(Br)cc2)o1)N1CCN(c2ccccn2)CC1 | -36
78 | Brc1ccc(COc2cccc3cccnc23)cc1 | 8.24
79 | COc1ccc(C(=O)CCNc2ccc(C)c(Cl)c2)cc1 | -2.55
80 | CC1(c2nnc(-c3ccc(F)cc3)o2)CC(c2c(Cl)cccc2Cl)=NO1 (stereo not shown) | -37
81 | Nc1nonc1C(=O)NCCNS(=O)(=O)c1ccc(F)cc1 | 17.5
82 | CC1=C(C(=O)OCc2ccccc2)C(c2ccsc2)C(C#N)=C(N)O1 (stereo not shown) | -6.93
83 | Cc1cc(N/C(=N/S(=O)(=O)c2ccc(F)cc2)c2ccccc2)n(-c2ccccc2)n1 | 17.3
84 | CC(=O)c1ccc2c(ccc3ccccc32)c1 | 26.4
85 | CCOC(=O)N1CCN(C(=O)/C=C/c2ccc(OC)cc2)CC1 | -17.8
